Laboratory results reported in PubChem BioAssay AID463173 (ICCB-Longwood Screening Facility, Harvard Medical School, 2010).
Screen size: about 52,000 compounds; about 4,300 (8.3%) were called active. No stated cut-off is given here; in the data, active means survival mostly below about 52% (no sharp cut-off); inactive means mostly above about 56%. Some of the results follow.

What follows are compounds tested on DeltatarO mutant (assay: S. aureus survival, RN4220 and DeltatarO strains – OD600, teichoic acid synthesis inhibitors, primary screen (AID 463173)). Conditions: S. aureus RN4220 wild type/DeltatarO growth, OD600, 18 h, stronger effect = lower value, screened at 18.75 µg/mL (by protocol).

Structure (SMILES)	survival
CCC(=O)N1CCc2cc(Br)cc(S(=O)(=O)CCC(=O)N3CCN(c4ccc(OC)cc4)CC3)c21	inactive: 78%
CCC(C(=O)Nc1cc(OC)ccc1OC)n1c(=O)c(C(F)(F)F)nc2ccccc21 (stereo not given)	inactive: 94%
O=C(CCCn1c(=O)c2ccccc2n(CC(=O)Nc2cccc(Cl)c2)c1=O)NCc1ccc2c(c1)OCO2	inactive: 76%
CCOc1ccc2oc(=O)cc(CN3CCN(Cc4ccc(F)cc4)CC3)c2c1	inactive: 83%
Cc1nc2nc(C)c(CCC(=O)NCc3ccccc3)c(C)n2n1	inactive: 86%
CCOc1ccc2ncc3c(-c4cccc(OC)c4)nn(-c4ccccc4)c3c2c1	inactive: 100%
Cc1ccc2occ(CC(=O)Nc3ccc(S(=O)(=O)N4CCC(C)CC4)cc3)c2c1	active: 55%
O=C(CSc1ncc(-c2ccccc2)n1Cc1ccco1)Nc1cccc(I)c1	inactive: 86%
O=C(Nc1cccc(F)c1)c1oc2ccccc2c1NC(=O)C12CC3CC(CC(C3)C1)C2	inactive: 72%
CCCCCn1cc2c(c1-c1ccccc1Br)c(=O)n(C)c(=O)n2C	inactive: 80%
O=S(=O)(c1ccccc1)c1nnn2c1nc(NCc1ccccc1)c1cc(Cl)ccc12	inactive: 80%
CC(C)c1ccc(NC(=O)CCS(=O)(=O)c2ccc3c(c2)CC(=O)N3C)cc1	inactive: 91%
CCCCNc1ncnc2c1nnn2Cc1ccccc1Cl	inactive: 71%
O=C(NCC1CCCO1)c1ccc(Br)cc1 (stereo not given)	inactive: 78%
O=c1c2sc3ccccc3c2n(Cc2ccccc2)c(=O)n1CCc1ccccc1	inactive: 71%
COc1ccc(C)cc1Nc1ncnc2c1c(-c1ccccc1)cn2-c1ccc(C)cc1	inactive: 80%
CCN(CCCNC(=O)CN1N=C(c2ccccc2)CCC1=O)c1ccccc1	active: -5%
COc1ccc2ccccc2c1CN1CCN(C(=O)c2ccccc2F)CC1	inactive: 83%
COc1ccc(S(=O)(=O)N2CCC(C(=O)Nc3cc(C(F)(F)F)ccc3Cl)CC2)cc1	inactive: 105%
COc1ccc(OC)c2sc(N3CCN(C(=O)C4COc5ccccc5O4)CC3)nc12 (stereo not given)	inactive: 88%
COc1cccc(Cc2nc3ccccc3nc2SCC(=O)Nc2cc(OC)ccc2OC)c1	active: 47%
CCC(C)NC(=O)Cn1c(=O)n(Cc2ccc(C(=O)NCc3ccc(C)cc3)cc2)c(=O)c2ccccc21 (stereo not given)	inactive: 94%
CCOc1cc(-c2ccc(OC(=O)c3ccccc3)c(OC)c2)cc(=O)c2c(C)oc(C)c12	inactive: 89%

Structure (SMILES)	survival
CCOCCn1ccc2c(OCC(=O)Nc3cccc(F)c3)cccc2c1=O	inactive: 91%
CCOc1ccccc1CNCCSc1nnnn1C	inactive: 74%
CS(=O)(=O)N1CCc2cc(C(=O)Nc3ccc(C(F)(F)F)cc3)ccc21	inactive: 76%
CCCN1c2cccc3cccc(c23)S1(=O)=O	inactive: 101%
Cc1ccc(CNC(=O)CSc2nc3n[nH]c(C)c3c(=N)n2-c2ccccc2Cl)cc1	inactive: 94%
O=C(Nc1ccccc1C(=O)OCc1cc(=O)n2nc(C3CC3)sc2n1)c1cccc(F)c1	inactive: 73%
Cc1ccc(S(=O)(=O)C(CNC(=O)COc2ccccc2)c2ccco2)cc1 (stereo not given)	inactive: 122%
COc1ccc(C2CC3(CC(C)(C)NC(=O)N3)Oc3cc(O)ccc32)cc1 (stereo not given)	inactive: 102%
CCCN(CCC)C(=O)Cn1c(=O)n(CCCCCC(=O)NCc2ccccc2Cl)c(=O)c2sccc21	inactive: 81%
CCCOc1ccc(-c2cc(C(F)(F)F)c(C#N)c(SCCC(=O)O)n2)cc1	active: 29%
CC(C)CCNC(=O)C(Cc1ccccc1)NS(=O)(=O)c1ccc2c(c1)c(=O)n(C)c(=O)n2C (stereo not given)	inactive: 84%
CCOc1ccc(NCc2nc3ccccc3n2CCOc2ccc(C)cc2)cc1	active: 1%
CC(=O)N1CCCc2cc(S(=O)(=O)N3CCCC(C(=O)NCc4ccc(C)cc4)C3)ccc21 (stereo not given)	inactive: 84%
O=C(NN=C1CCCCC1)C1CC1c1ccccc1 (stereo not given)	inactive: 101%
CN(C)c1nc(N(C)C)nc(N2CC(=O)N(N)C2=N)n1	inactive: 76%
CCc1nn2c(=O)c(S(=O)(=O)Nc3ccc(C(C)C)cc3)c(C)nc2s1	inactive: 69%
CCc1ccc(-n2nc3ccc(NC(=O)COc4ccc(OC)cc4)cc3n2)cc1	inactive: 78%
COc1cccc(Cn2c(CNS(=O)(=O)c3ccc(Cl)s3)nc3cccnc32)c1	inactive: 88%
O=C(CSc1nc2c(c(=O)[nH]1)CN(Cc1ccc3c(c1)OCO3)CC2)Nc1ccccc1Cl	inactive: 82%
COc1ccccc1CNC(=O)CSc1nnc(C)c2c(C)n(-c3ccccc3)nc12	inactive: 99%
O=C(O)c1csc(Br)c1Br	inactive: 80%
O=C(Nc1ccc(F)c(Cl)c1)N1CCC(CN2CCOCC2)CC1	inactive: 89%
Cc1nc2sccn2c(=O)c1S(=O)(=O)Nc1cc(C(F)(F)F)ccc1Cl	active: 69%

Structure (SMILES)	survival
Cc1ccccc1OCCCCn1nnc2sc3c(c2c1=O)CCC(C)C3 (stereo not given)	inactive: 65%
CCOCCCn1c(SCC(=O)Nc2ccccc2Cl)nc2c(oc3ccccc32)c1=O	inactive: 78%
Cc1ccc(CCNC(=O)c2ccc3c(c2)nc2n3CCOC2)cc1	inactive: 86%
OCCN(CCO)c1nc2ccccc2[nH]1	inactive: 93%
COCCNC(=O)c1ccc(-c2nc(CS(=O)(=O)c3ccccc3)c(C)o2)cc1	inactive: 119%
CCOC(=O)c1ccc(NC(=O)C(CC)Sc2nc(N)cc(N)n2)cc1 (stereo not given)	inactive: 105%
COc1ccccc1C(=O)Nc1nnc2n1CCS2	inactive: 69%
COc1cccc2c1cc1c(=O)n(CC(=O)NCc3ccco3)nc(C)n12	inactive: 88%
Cc1ccc(CCNC(=O)CN(c2ccc(C)cc2)S(=O)(=O)N(C)C)cc1	inactive: 78%
CC(C)OCc1cc(CN2CCN(c3cccc(C(F)(F)F)c3)CC2)c(O)c2ncccc12	inactive: 52%
Cc1c(Cl)cccc1NC(=O)CSc1nc(=O)n(Cc2ccco2)c2c1CCC2	inactive: 98%
CCCCN(C)C(=O)CSc1nc2ccccc2nc1Cc1ccc(C)cc1	active: 32%
CCN(Cc1ccccc1)Cc1nnnn1CCOC	inactive: 71%
Cc1ccc2[nH]c(=O)c3cc(C(=O)NC4CCC(C)CC4)sc3c2c1 (stereo not given)	inactive: 56%
CCOc1ccc(NC(=O)c2cc(S(=O)(=O)N3CCN(c4ccccc4F)CC3)ccc2F)cc1	inactive: 69%
COc1ccccc1CNC(=O)C(=O)NCC(c1cccs1)S(=O)(=O)c1cccs1 (stereo not given)	inactive: 90%
CCSc1nnc2n(-c3ccccc3)c(=O)c3c4c(sc3n12)CCCC4	inactive: 95%
CCOc1ccc(Nc2c(S(=O)(=O)c3ccc(C)cc3)cnc3ccc(F)cc23)cc1	inactive: 64%
Cc1ccc2oc(C(=O)N(Cc3sccc3C)C3CCS(=O)(=O)C3)c(C)c2c1 (stereo not given)	inactive: 65%
COc1ccc(-n2c(=O)c3c4c(sc3n(C)c2=O)CN(C(C)=O)CC4)cc1	inactive: 86%
O=c1cc(-c2ccccc2)n2c(SCc3ccccc3Cl)nnc2[nH]1	inactive: 95%
O=C1C(=O)N(C2CCN(C(=O)c3ccccc3F)CC2)CCN1Cc1ccc(F)cc1	inactive: 67%
CCCCC1(C(=O)OC)NC(c2ccc(O)cc2)C2C(=O)N(c3ccccc3)C(=O)C21 (stereo not given)	inactive: 83%

Structure (SMILES)	survival
COc1ccc(Cl)cc1NC(=O)CSc1ccc2nnc(CCNS(=O)(=O)c3ccccc3)n2n1	inactive: 53%
Cc1ccc(-c2noc(CSc3nnc(C)n3-c3ccc(C)c(C)c3)n2)cc1	inactive: 75%
Cc1cc(OCC(=O)N/N=C/c2ccc(I)o2)cc(C)c1Cl	inactive: 75%
CCCCCNC(=O)C1CCC(Cn2c(=O)c3sccc3n(CC(=O)NCc3cccc(OC)c3OC)c2=O)CC1 (stereo not given)	inactive: 81%
CN(C)c1ccc(CNC(=O)C2CCN(Cc3cc4ccccc4n3Cc3ccccc3)CC2)cc1	inactive: 94%
Cc1sc2ccccc2[n+]1CCCO	inactive: 76%
Cc1cccc(N(C)S(=O)(=O)c2cc3[nH]c(=O)c(=O)[nH]c3cc2C)c1	inactive: 88%
CCc1ccc(NC(=O)C2=CC(c3cccs3)=NS(=O)(=O)N2C)cc1	inactive: 81%
COc1cc(NS(=O)(=O)c2c(C)nc3sc(C)c(C)n3c2=O)cc(OC)c1	inactive: 71%
COc1ccc(C(=O)NCc2ccc3c(c2)CCN3C(=O)c2ccc(F)cc2)cc1	inactive: 83%
COc1ccc(C)c2sc(NC(=O)c3ccc(S(=O)(=O)N4CCCC4)cc3)nc12	inactive: 101%
COc1ccccc1CNC(=O)COCc1cc(-c2ccc3c(c2)OCO3)on1	active: 25%
COc1ccc(/C=C(\C#N)c2nc3ccccc3c(=O)[nH]2)cc1OC	inactive: 86%
O=C(COc1ccc(F)cc1)OCc1cc(=O)n2nc(-c3cccs3)sc2n1	inactive: 72%
CC(C)CN(CC(C)C)CC(O)Cn1cc(/C=C/C(=O)c2ccccc2)c2ccccc21 (stereo not given)	active: 38%
COc1cccc(CNS(=O)(=O)c2c(C(=O)N3CCC(C)CC3)c(C)n(C)c2C)c1	inactive: 96%
COc1ccc(C(=O)C2CCN(CC(=O)NCc3ccc(F)cc3)CC2)cc1	inactive: 83%
O=C(NC1CCCCC1)c1ccc2c(c1)N(Cc1ccccc1Cl)C(=O)c1ccccc1S2	inactive: 99%
O=c1cc2[nH][nH]c(=S)n2c(=O)[nH]1	inactive: 61%
COc1ccc(CCNC(=O)Cn2cc(S(=O)(=O)Cc3ccc(F)cc3)c3ccccc32)cc1OC	inactive: 71%
CCOc1ccccc1NC(=O)C1CCCN1S(=O)(=O)c1ccc2nc(-c3ccccc3)[nH]c2c1 (stereo not given)	inactive: 50%
